Data as given in the supplement of paper PMC10126150.
Sequences with one replicate were seen in a single cluster, so their values are uncertain.

system: ATP; experiment: switch fluorescence ratio, 500 uM ATP over buffer (Cy3 cluster intensity, sum of 5 cycles each) (fold (ratio)); higher = stronger signal-on switching upon ATP binding; sequences stand for … in TCGTCGGCAGCGTCAGATGTGTATAAGAGACAGTTTTTTTTTTTTTTTTTTTTTTTTT…TC; conditions: aptamer strand: ATP DNA aptamer (quencher-CACCTGGGGGAGTATTGCGGAGGAAGG + anchor), 100 nM annealed; ATP concentration: 500 uM; one replicate
Outline: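 The quencher-labelled ATP aptamer, at 100 nM, was annealed to Cy3-labelled switching-strand clusters on a modified Illumina MiSeq flow-cell. The clusters were imaged in selection buffer, then after 15 min with 500 uM ATP at 22 °C, and this buffer/ATP cycle ran five times with NaOH stripping and re-annealing between runs. Per-cluster fluorescence ratios, summed target-cycle over summed buffer-cycle Cy3 intensity, were averaged per switch-domain sequence. Clusters outside 100-1000 RFU were excluded.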
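Further: ATP exposure 15 min at 22 °C before imaging.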

Row | Sequence | switch fluorescence ratio
1 | TAATCGGTAC | 1.06
2 | TAATCGTTGT | 0.962
3 | TAATCTATCA | 1.01
4 | TAATCTCGTG | 0.945
5 | TAATCTCTGC | 1.02
6 | TAATGAAAAT | 1.02
7 | TAATGAACAG | 1.02
8 | TAATGACTCG | 1.05
9 | TAATGGCTAT | 0.976
10 | TAATGGTGTA | 1.01
11 | TAATGTGAGA | 1.03
12 | TAATTAATCG | 0.977
13 | TAATTCC | 1.1
14 | TAATTCGGGC | 1
15 | TAATTCGTGA | 1.01
16 | TAATTCTGTG | 0.99
17 | TAATTGACCC | 1.03
18 | TAATTGACTC | 1.07
19 | TAATTGGAAT | 1.25
20 | TAATTGGCTG | 1.03
21 | TAATTGTTAG | 0.976
22 | TAATTTAACT | 1.1
23 | TAATTTACTT | 1.05
24 | TAATTTAGCG | 1.01
25 | TAATTTGAA | 0.984
26 | TACAATGCCG | 1.04

Row | Sequence | switch fluorescence ratio
27 | TACAATGGAT | 0.991
28 | TACACAAGTA | 1.09
29 | TACACCCTGC | 1.14
30 | TACACGCAAG | 1.18
31 | TACACGGCAA | 0.839
32 | TACACTTCGT | 1.05
33 | TACAGATGCC | 1.01
34 | TACAGGGTGT | 1.07
35 | TACAGGTATA | 1
36 | TACAGTTTTG | 0.982
37 | TACATAAACT | 1.02
38 | TACATAATGG | 1.02
39 | TACATAGCGA | 1.32
40 | TACATCCTTT | 1.09
41 | TACATGTG | 0.983
42 | TACATTCAAT | 1.05
43 | TACATTGATT | 1.07
44 | TACATTTAGA | 1.03
45 | TACCAGATAC | 1.41
46 | TACCAGGAA | 1.02
47 | TACCATGATG | 0.96
48 | TACCCACTTA | 1.25
49 | TACCCAGAC | 1.24
50 | TACCCCATCT | 1.06
51 | TACCCTCACG | 1.42
52 | TACCGCCAGC | 1.43

Row | Sequence | switch fluorescence ratio
53 | TACCGCTCAG | 1.06
54 | TACCGGGCAG | 1
55 | TACCGGGGAT | 0.949
56 | TACCTGTGGT | 0.947
57 | TACCTTTTGT | 1
58 | TACGAAATCG | 1.03
59 | TACGAACGGC | 1.65
60 | TACGAAGAT | 1.03
61 | TACGAATATA | 1.07
62 | TACGAATGTT | 1.01
63 | TACGACGACT | 1.08
64 | TACGAGGTGC | 1.14
65 | TACGCAATT | 2.28
66 | TACGCCCAGA | 1.03
67 | TACGCCGGCA | 1.04
68 | TACGCGCGTT | 1.04
69 | TACGCGCTAC | 3.12
70 | TACGCTATGC | 4.35
71 | TACGCTGGAT | 1.09
72 | TACGCTGTT | 1
73 | TACGGACAC | 1.42
74 | TACGGAGAGT | 1.01
75 | TACGGCTCGG | 0.987
76 | TACGGGAC | 1.29
77 | TACGGGCAGT | 1.04
78 | TACGGGGTTC | 0.958

Row | Sequence | switch fluorescence ratio
79 | TACGTCAGAA | 1.06
80 | TACGTCGAAG | 1.02
81 | TACGTCGGCG | 0.991
82 | TACGTCTCCT | 1.05
83 | TACGTCTTAA | 1.03
84 | TACGTGTCCT | 1.02
85 | TACGTTGCTC | 1.08
86 | TACTAGAGGG | 1.02
87 | TACTAGCACG | 1.16
88 | TACTAGGTTC | 1.01
89 | TACTAGTATG | 1.01
90 | TACTAGTGAA | 1.04
91 | TACTATAATT | 1.03
92 | TACTATCATC | 1.03
93 | TACTCCCCGC | 1.3
94 | TACTCCCGCA | 2.63
95 | TACTCGACAT | 1.16
96 | TACTCTAGT | 1.06
97 | TACTCTCTTT | 1.01
98 | TACTGAATTG | 1.01
99 | TACTGCGGTA | 0.996
100 | TACTGGCCAT | 0.97
101 | TACTGGCTTG | 0.998
102 | TACTGGTTAC | 1.07
103 | TACTGGTTTC | 0.976
104 | TACTGTACGG | 1.5

Row | Sequence | switch fluorescence ratio
105 | TACTGTATAG | 1.07
106 | TACTGTATG | 1.13
107 | TACTGTCGCC | 1.03
108 | TACTTAACAA | 1.15
109 | TACTTAAGGG | 1.01
110 | TACTTAGCCT | 1.08
111 | TACTTAGGTA | 1.03
112 | TACTTCAGTC | 1
113 | TACTTCGAGG | 0.995
114 | TACTTCGGTA | 1.02
115 | TACTTCGGTC | 1.04
116 | TACTTCTAT | 1.02
117 | TACTTGGACC | 1.08
118 | TACTTGGGGC | 0.934
119 | TACTTGTATA | 1.03
120 | TACTTGTGGC | 0.996
121 | TACTTGTTGA | 0.957
122 | TACTTTAAGG | 0.999
123 | TACTTTACTC | 1.39
124 | TACTTTGCCC | 1.11
125 | TACTTTGGTC | 0.981
126 | TAGAAACTAG | 1.03
127 | TAGAAATTTT | 1.03
128 | TAGAACACGT | 0.949
129 | TAGAACAGTG | 1.01
130 | TAGAACTGAA | 1.07

Row | Sequence | switch fluorescence ratio
131 | TAGAACTGGT | 0.917
132 | TAGAAGACCT | 1.08
133 | TAGAAGGTCA | 1
134 | TAGAATGGGT | 0.994
135 | TAGACAAAGA | 0.98
136 | TAGACCGAAA | 1.06
137 | TAGACTAAAA | 0.996
138 | TAGACTAACT | 1.12
139 | TAGACTGGGT | 0.981
140 | TAGAGAAT | 1.05
141 | TAGAGAGCGT | 0.952
142 | TAGAGATAGT | 0.955
143 | TAGAGCAAAC | 2.61
144 | TAGAGCAGTC | 1.2
145 | TAGAGGCCAC | 0.973
146 | TAGAGGTTGC | 1
147 | TAGAGTCCTT | 1
148 | TAGAGTGAGT | 0.964
149 | TAGAGTGGTT | 1.07
150 | TAGATAGTTG | 0.933
151 | TAGATATCGT | 1.04
152 | TAGATGAGGT | 0.965
153 | TAGATGATAC | 1.07
154 | TAGATGCAA | 0.985
155 | TAGATGGTG | 0.999
156 | TAGATGTAGA | 1.04

Row | Sequence | switch fluorescence ratio
157 | TAGATGTTAT | 1.01
158 | TAGATTACTT | 0.974
159 | TAGATTCCAG | 0.995
160 | TAGATTGCCA | 0.999
161 | TAGATTTCAA | 1.07
162 | TAGCAAATGG | 1.07
163 | TAGCACAAAC | 1.57
164 | TAGCACCCGA | 1.18
165 | TAGCACGAAT | 1.4
166 | TAGCACGACT | 0.999
167 | TAGCAGCGG | 1.03
168 | TAGCATGCCG | 0.866
169 | TAGCATGTTG | 1.02
170 | TAGCCCCTTT | 0.959
171 | TAGCCTAGC | 1.01
172 | TAGCCTCATG | 0.972
173 | TAGCCTTTAT | 0.989
174 | TAGCGAATGG | 1.08
175 | TAGCGAATTT | 1.03
176 | TAGCGCGTTG | 1
177 | TAGCGGAGGG | 0.968
178 | TAGCGGGCGG | 0.998
179 | TAGCGTCCCC | 1.34
180 | TAGCGTGCC | 0.974
181 | TAGCTATTTC | 1.07
182 | TAGCTCAGTA | 1.01

Row | Sequence | switch fluorescence ratio
183 | TAGCTCTGGG | 0.99
184 | TAGCTGGTAG | 1.02
185 | TAGCTGTCGT | 1.03
186 | TAGCTTAATA | 1.01
187 | TAGCTTCCCT | 1.06
188 | TAGCTTGGGT | 1.02
189 | TAGGAACAG | 0.982
190 | TAGGAGACCG | 1.05
191 | TAGGAGAGGT | 1.12
192 | TAGGAGGTGA | 1.01
193 | TAGGAGTGG | 0.959
194 | TAGGATAGAG | 0.983
195 | TAGGATCATG | 0.996
196 | TAGGATTCCG | 0.933
197 | TAGGATTGTC | 0.994
198 | TAGGATTTG | 0.979
199 | TAGGCAATG | 1.77
200 | TAGGCCAGA | 1.01
201 | TAGGCCTCTA | 0.958
